Measured values as given in patent US20170114099A1 (Affibody, published 2017).
Changes are numbered by the printed parent chain.

T1: human interleukin-6 (hIL-6) (human, UniProt P05231 30-212)
T1 sequence: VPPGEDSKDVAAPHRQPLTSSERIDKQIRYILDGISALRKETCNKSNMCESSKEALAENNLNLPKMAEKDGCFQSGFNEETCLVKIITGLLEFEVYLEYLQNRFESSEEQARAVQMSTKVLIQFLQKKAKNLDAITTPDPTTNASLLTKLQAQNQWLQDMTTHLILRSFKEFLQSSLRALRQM

B1: His6-Z06777 (designed binder)
chain: MGSSHHHHHHLQVDAKYAKEERKAWFEIHLLPNLTTQQRSAFISKLFDDPSQSSELLSEAKKLNDSQAPKVD
B2: His6-Z06779 (designed binder)
chain: B1 chain with K23S, L30T, T36V, R39I, S40A, S44W, F47Y
B3: His6-Z06789 (designed binder)
chain: B1 chain with K23Q, F26W, L30S, T36V, Q37D, R39M, S40A, S44V, F47M
B4: His6-Z06791 (designed binder)
chain: B1 chain with E21Q, R22A, F26W, L30V, T36V, Q37H, R39V, S40A, S44T
B5: His6-Z06792 (designed binder)
chain: B1 chain with K23D, F26H, H29Q, L30I, T36I, Q37T, R39M, S40A
B6: His6-Z06799 (designed binder)
chain: B1 chain with R22Q, K23R, F26T, L30V, T36V, R39M, S40A, S44T
B7: His6-Z06802 (designed binder)
chain: MGSSHHHHHHLQVDAKYAKETQHAWWEIHKLPNLTVSQMAAFITKLFDDPSQSSELLSEAKKLNDSQAPKVD
B8: His6-Z06805 (designed binder)
chain: B7 chain with T21D, Q22R, H23T, V36A, S37E
B9: His6-Z06809 (designed binder)
chain: B1 chain with K23D, F26R, L30A, T36V, Q37D, R39L, S40V, S44T
B10: His6-Z06814 (designed binder)
chain: B7 chain with T21E, H23R, W26R, K30L, V36I, S37E, T44W, F47L
B11: His6-Z06829 (designed binder)
chain: B7 chain with T21E, H23R, W26T, K30V, A40S, T44S
B12: His6-Z06834 (designed binder)
chain: B7 chain with T21Q, Q22H, H23Q, W26N, K30L, S37N, T44V
B13: His6-Z06844 (designed binder)
chain: B7 chain with T21E, Q22H, H23A, W26L, K30L, S37K, T44G, F47M
B14: Z06789-ABD (Z06789 fused to ABD variant PP013) (designed binder)
chain: MGSSLQVDAKYAKEERQAWWEIHSLPNLTVDQMAAFIVKLMDDPSQSSELLSEAKKLNDSQAPKVDGSLAEAKEAANAELDSYGVSDFYKRLIDKAKTVEGVEALKDAILAALP
B15: Z06799-ABD (Z06799 fused to ABD variant PP013) (designed binder)
chain: B14 chain with R16Q, Q17R, W20T, S24V, D31Q, V38T, M41F
B16: Z06809-ABD (Z06809 fused to ABD variant PP013) (designed binder)
chain: B14 chain with Q17D, W20R, S24A, M33L, A34V, V38T, M41F
B17: Z06814-ABD (Z06814 fused to ABD variant PP013) (designed binder)
chain: B14 chain with R16Q, Q17R, W20R, S24L, V30I, D31E, V38W, M41L
B18: Z06829-ABD (Z06829 fused to ABD variant PP013) (designed binder)
chain: B14 chain with R16Q, Q17R, W20T, S24V, D31S, A34S, V38S, M41F
B19: His6-Z14700 (designed binder)
chain: B7 chain with T21E, Q22R, W26F, S37D
B20: His6-Z11632 (designed binder)
chain: B1 chain with K23E, L30T, T36V, Q37S, R39M, S40A
B21: His6-Z14630 (designed binder)
chain: B7 chain with T21E, Q22K, H23F, S37D, M39V
B22: His6-Z14712 (designed binder)
chain: B7 chain with T21E, Q22Y, H23L, W26N, S37D
B23: His6-Z14861 (designed binder)
chain: B1 chain with F26I, L30N, T36I, Q37D, R39M, S40A, S44T
B24: His6-Z14862 (designed binder)
chain: B7 chain with T21E, Q22A, H23A, W26R, K30L, V36I, S37D
B25: His6-Z14976 (designed binder)
chain: B1 chain with F26Y, T36V, Q37E, R39M, S40A, S44T
B26: His6-Z14984 (designed binder)
chain: B7 chain with T21E, Q22K, H23Q, W26R, K30L, V36I, S37D
B27: His6-Z15015 (designed binder)
chain: B7 chain with T21E, Q22R, H23D, K30A, S37E
B28: His6-Z15036 (designed binder)
chain: B7 chain with T21E, Q22Y, H23E, W26F, K30A, S37E
B29: His6-Z15110 (designed binder)
chain: B7 chain with T21E, Q22R, H23R, W26T, K30S, V36I, S37D
B30: His6-Z15122 (designed binder)
chain: B1 chain with K23H, F26Y, T36I, Q37D, R39M, S40A
B31: His6-Z15142 (designed binder)
chain: B7 chain with T21E, Q22R, H23M, W26Y, K30S, S37D

Target: T1, human interleukin-6 (hIL-6)
Experiment: cell-based or functional assay

Row | Binder | IC50 blocking the IL-6 dependent growth of TF-1 cells [nM]
1 | B1 | 72
2 | B2 | 30
3 | B3 | 8.6
4 | B4 | 5.2
5 | B5 | 53
6 | B6 | 3.9
7 | B7 | 43
8 | B8 | 77
9 | B9 | 20
10 | B10 | 1.6
11 | B11 | 28
12 | B12 | 61
13 | B13 | 110
14 | B14 | ~100
15 | B15 | 2.4
16 | B16 | 10
17 | B17 | 0.8
18 | B18 | 15

Target: T1, human interleukin-6 (hIL-6)
Experiment: cell-based or functional assay
Remark: another data set of the same source

Row | Binder | IC50 blocking the IL-6 dependent growth of TF-1 cells [pM]
19 | B19 | 100
20 | B10 | 130
21 | B20 | 120
22 | B21 | 87
23 | B22 | 220
24 | B23 | 190
25 | B24 | 430
26 | B25 | 42
27 | B26 | 270
28 | B27 | 27
29 | B28 | 180
30 | B29 | 930
31 | B30 | 85
32 | B31 | 510

Target: T1, human interleukin-6 (hIL-6)
Experiment: cell-based or functional assay
Remark: another data set of the same source

Row | Binder | IC50, inhibition of IL-6 trans-signaling dependent MCP-1 secretion by HUVECs [nM]
33 | B17 | ~1
